In paper PMC5268361:
Results are given in words; binding and its absence hold for the method and conditions named. In cells and extracts the contact can be indirect. Some entries that bind do so weakly or less than the wild type. For some of these results: Where a sequence is shown, tags or fusion partners need not be part of it.

Chains of the proteins cited; added tags and fusions are not shown. Lines headed by an entry give the natural chain unless they say otherwise; changes in a name come on top.
UniProt Q9ULZ3: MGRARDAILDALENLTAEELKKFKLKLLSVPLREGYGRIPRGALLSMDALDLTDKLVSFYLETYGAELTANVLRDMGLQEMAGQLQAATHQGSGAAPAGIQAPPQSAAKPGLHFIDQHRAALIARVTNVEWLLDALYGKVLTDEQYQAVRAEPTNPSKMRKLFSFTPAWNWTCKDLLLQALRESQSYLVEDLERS

Experiments:
[1] = target: mammalian GST-GRA7 fusion (wild type) (Toxoplasma gondii) (UniProt O00933); assay: pull-down; 293T cells co-transfected (48 hr) with mammalian GST-GRA7 constructs and V5-ASC or AU1-PLD1 constructs; GST pulldown, IB with αV5 or αAU1
[2] = target: bacterially purified 6xHis-GRA7-I (aa 26-80) (Toxoplasma gondii) (UniProt O00933); assay: co-IP; BMDMs from PKCα+/+ and PKCα-/- mice stimulated with rGRA7-I or rGRA7-III and their mutants for 18 h, subcellularly fractionated, co-IP with αHis, IB with αASC, αPLD1, αPKCα; only the target purified
[3] = target: mammalian GST-GRA7-I (N-terminal I-domain, aa26-80) (Toxoplasma gondii) (UniProt O00933); assay: pull-down; 293T cells co-transfected (48 hr) with mammalian GST-GRA7 constructs and V5-ASC or AU1-PLD1 constructs; GST pulldown, IB with αV5 or αAU1
[4] = target: mammalian GST-GRA7-I S52A (Toxoplasma gondii) (UniProt O00933); assay: as above
[5] = target: T1, mammalian GST-GRA7-III (N-terminal III-domain, aa120-150) (Toxoplasma gondii) (UniProt O00933); assay: as above
T1 sequence: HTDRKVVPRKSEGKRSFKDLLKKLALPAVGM

[6] = target: T2, bacterially purified 6xHis-GRA7-III (aa 120-150) (Toxoplasma gondii) (UniProt O00933); assay: co-IP; BMDMs from PKCα+/+ and PKCα-/- mice stimulated with rGRA7-I or rGRA7-III and their mutants for 18 h, subcellularly fractionated, co-IP with αHis, IB with αASC, αPLD1, αPKCα; only the target purified
T2 sequence: T1 sequence

[7] = target: T3, PLD1, endogenous in mouse bone marrow-derived macrophages (mouse (endogenous in BMDMs)) (UniProt Q9Z280); assay: co-IP; only the binder purified
T3 sequence: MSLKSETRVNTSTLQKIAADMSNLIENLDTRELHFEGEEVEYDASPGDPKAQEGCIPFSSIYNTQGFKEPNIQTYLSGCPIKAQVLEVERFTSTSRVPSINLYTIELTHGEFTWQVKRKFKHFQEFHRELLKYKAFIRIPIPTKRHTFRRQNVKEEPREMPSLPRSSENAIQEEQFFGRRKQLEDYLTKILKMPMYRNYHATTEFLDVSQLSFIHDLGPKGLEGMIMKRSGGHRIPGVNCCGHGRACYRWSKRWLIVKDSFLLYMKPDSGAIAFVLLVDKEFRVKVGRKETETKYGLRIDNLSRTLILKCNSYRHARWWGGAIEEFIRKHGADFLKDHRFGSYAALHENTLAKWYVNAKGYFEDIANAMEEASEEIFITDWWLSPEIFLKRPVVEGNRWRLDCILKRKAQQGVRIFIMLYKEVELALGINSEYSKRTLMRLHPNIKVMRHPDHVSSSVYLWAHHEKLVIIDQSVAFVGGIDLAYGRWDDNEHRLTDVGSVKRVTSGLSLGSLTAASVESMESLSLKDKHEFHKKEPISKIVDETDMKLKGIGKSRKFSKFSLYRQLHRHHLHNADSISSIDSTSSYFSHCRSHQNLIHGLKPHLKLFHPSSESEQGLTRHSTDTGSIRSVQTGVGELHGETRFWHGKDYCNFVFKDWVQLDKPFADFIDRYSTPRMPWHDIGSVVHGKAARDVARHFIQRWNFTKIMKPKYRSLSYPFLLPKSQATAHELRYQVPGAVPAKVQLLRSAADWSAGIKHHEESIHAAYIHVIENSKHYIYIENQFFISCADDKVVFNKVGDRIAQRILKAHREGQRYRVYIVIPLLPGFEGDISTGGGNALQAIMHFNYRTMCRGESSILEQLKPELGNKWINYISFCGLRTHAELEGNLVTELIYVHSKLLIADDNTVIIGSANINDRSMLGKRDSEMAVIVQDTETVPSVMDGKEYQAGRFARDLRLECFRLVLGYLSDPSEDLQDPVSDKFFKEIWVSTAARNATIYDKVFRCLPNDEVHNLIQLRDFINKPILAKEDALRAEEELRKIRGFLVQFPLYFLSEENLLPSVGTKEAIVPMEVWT

## AU1-tagged PLD1 PX domain (aa81-212) (from UniProt Q13393 81-212) (domain or fragment)
[1]
  binding: binds

## PKCα, endogenous in mouse bone marrow-derived macrophages (from UniProt P20444 1-672) (enzyme)
[2]
  binding: binds

## V5-tagged ASC (wild type) (from UniProt Q9ULZ3 1-195)
[3]
  binding: binds weakly
[1]
  binding: binds
[4]
  binding: no binding

## V5-tagged ASC N-terminal PYD domain (aa1-91) (from UniProt Q9ULZ3 1-91) (domain or fragment)
[1]
  binding: binds

B1: AU1-tagged PLD1 (wild type) (enzyme, UniProt Q13393 1-1074)
chain: MSLKNEPRVNTSALQKIAADMSNIIENLDTRELHFEGEEVDYDVSPSDPKIQEVYIPFSAIYNTQGFKEPNIQTYLSGCPIKAQVLEVERFTSTTRVPSINLYTIELTHGEFKWQVKRKFKHFQEFHRELLKYKAFIRIPIPTRRHTFRRQNVREEPREMPSLPRSSENMIREEQFLGRRKQLEDYLTKILKMPMYRNYHATTEFLDISQLSFIHDLGPKGIEGMIMKRSGGHRIPGLNCCGQGRACYRWSKRWLIVKDSFLLYMKPDSGAIAFVLLVDKEFKIKVGKKETETKYGIRIDNLSRTLILKCNSYRHARWWGGAIEEFIQKHGTNFLKDHRFGSYAAIQENALAKWYVNAKGYFEDVANAMEEANEEIFITDWWLSPEIFLKRPVVEGNRWRLDCILKRKAQQGVRIFIMLYKEVELALGINSEYTKRTLMRLHPNIKVMRHPDHVSSTVYLWAHHEKLVIIDQSVAFVGGIDLAYGRWDDNEHRLTDVGSVKRVTSGPSLGSLPPAAMESMESLRLKDKNEPVQNLPIQKSIDDVDSKLKGIGKPRKFSKFSLYKQLHRHHLHDADSISSIDSTSSYFNHYRSHHNLIHGLKPHFKLFHPSSESEQGLTRPHADTGSIRSLQTGVGELHGETRFWHGKDYCNFVFKDWVQLDKPFADFIDRYSTPRMPWHDIASAVHGKAARDVARHFIQRWNFTKIMKSKYRSLSYPFLLPKSQTTAHELRYQVPGSVHANVQLLRSAADWSAGIKYHEESIHAAYVHVIENSRHYIYIENQFFISCADDKVVFNKIGDAIAQRILKAHRENQKYRVYVVIPLLPGFEGDISTGGGNALQAIMHFNYRTMCRGENSILGQLKAELGNQWINYISFCGLRTHAELEGNLVTELIYVHSKLLIADDNTVIIGSANINDRSMLGKRDSEMAVIVQDTETVPSVMDGKEYQAGRFARGLRLQCFRVVLGYLDDPSEDIQDPVSDKFFKEVWVSTAARNATIYDKVFRCLPNDEVHNLIQLRDFINKPVLAKEDPIRAEEELKKIRGFLVQFPFYFLSEESLLPSVGTKEAIVPMEVWT
[1]
  binding: binds
[5]
  binding: binds

B2: PLD1, endogenous in mouse bone marrow-derived macrophages (enzyme, UniProt Q9Z280 1-1074)
chain: T3 sequence
[6]
  binding: binds

B3: bacterially purified 6xHis-GRA7-III (aa 120-150) (domain or fragment, UniProt O00933 120-150)
chain: T1 sequence
[7]
  binding: binds
